# From the supplement of paper PMC3724861
# This is one part of the list.
# Tested on: T1, Caupolican (Caup) homeodomain DNA-binding domain
# T1 sequence: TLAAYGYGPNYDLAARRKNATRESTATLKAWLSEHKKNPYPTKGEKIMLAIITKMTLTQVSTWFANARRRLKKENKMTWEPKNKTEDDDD
# Assay: PBM E-score (8-mer, recovered from the published 9-mer minima) (E-score (dimensionless, -0.5 to 0.5)); Drosophila protein; higher = stronger relative binding preference, active = 0.31 or more
# Summary of the method: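 An enrichment score, with higher meaning stronger, expresses relative binding preference for each short DNA word. The protein used was Caup's homeodomain DNA-binding domain (residues 214-303), produced by in vitro transcription and translation and tested at 100 nM on custom-designed protein binding microarrays. The 8-mer values were recovered from published 9-mer scores, each equal to the lower of its two constituent 8-mer scores.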
row,Sequence,PBM E-score
1,TTAGAGAA,≥ 0.028
2,CACGGACG,inactive: 0.0061
3,CGCTTGCC,inactive: -0.161
4,CAGGATCC,inactive: -0.112
5,AGACTATA,inactive: 0.0802
6,AATTTCCT,inactive: -0.0222
7,CGGGGCAA,inactive: -0.114
8,CCTTCAAC,inactive: 0.0475
9,CCCGTACG,inactive: -0.0886
10,CCTGCCTC,inactive: -0.194
11,ACGACTGG,inactive: -0.0548
12,ATCGTCAT,≥ 0.155
13,CACTAACA,inactive: 0.221
14,ACACGAAC,inactive: 0.257
15,CGTTTCAC,inactive: -0.0269
16,CATCACTC,inactive: 0.0545
17,TCAGCCCA,inactive: -0.145
18,GAAGCCTA,inactive: -0.122
19,AGTTGACG,inactive: 0.0598
20,GATCAAAC,inactive: 0.0445
21,AGTGAGCC,inactive: -0.0704
22,CTGTCACC,inactive: 0.0574
23,CATGTCAG,active: 0.413
24,CTTTAAAG,inactive: -0.0483

row,Sequence,PBM E-score
1,CTAGAATC,inactive: 0.0169
2,GCTTGGCC,inactive: -0.225
3,AGCGTTTA,inactive: 0.00077
4,CAACGCTG,inactive: -0.0959
5,TGCCTAAA,inactive: -0.0355
6,CCGCGGCC,inactive: -0.298
7,GACGGGCC,inactive: -0.291
8,TAACTAAA,inactive: 0.109
9,CGCTGCCG,inactive: -0.185
10,CAGAGTAC,inactive: 0.0122
11,ACGTCTTA,inactive: 0.0891
12,CACGCATA,inactive: 0.124
13,GCTAAAAA,inactive: 0.0111
14,AGAATCTG,inactive: 0.00045
15,GCATAGGA,inactive: 0.0385
16,ATCTTACC,inactive: -0.0254
17,ATCTCCCA,inactive: -0.0733
18,GCGCATAA,inactive: -0.0295
19,GCGCCGCA,inactive: -0.0847
20,ATTAGGTA,inactive: 0.125
21,AGCGCCCA,inactive: -0.309
22,GAAGTGAA,inactive: 0.0123
23,GTCCGCTA,inactive: -0.0553
24,ACTAGGTG,inactive: 0.0247

row,Sequence,PBM E-score
1,GTCCATAA,inactive: 0.0455
2,ATCCGGTC,inactive: -0.0543
3,CCGGTCAG,inactive: -0.142
4,AATATCCT,inactive: 0.0639
5,GACATGTA,active: 0.477
6,AAATGCCT,≥ -0.019
7,CATCTAAA,inactive: 0.0293
8,GCCTAGCA,inactive: -0.183
9,ACTGCAAC,inactive: 0.0517
10,GCCGAAGA,inactive: -0.122
11,GGGGCAAA,inactive: -0.144
12,GACTGCTA,inactive: -0.036
13,CCGCCCAG,inactive: -0.252
14,ATTTAGCG,inactive: -0.00146
15,ACCACAAC,inactive: 0.175
16,GAGCGAAA,inactive: 0.00372
17,CGAGTCCA,inactive: -0.118
18,CCCAGACC,inactive: -0.195
19,CTCGGGCC,inactive: -0.183
20,CAATGGAC,inactive: 0.0656
21,ACTTAACT,inactive: 0.0819
22,CTGGGCTC,inactive: -0.186
23,ACTCGTAT,inactive: 0.175
